# Measurements reported in a collection of fitness landscapes (doi:10.1016/j.celrep.2020.107928).
# The full ranking holds about 81,000 sequences; the median of “one-hybrid fitness for binding NBS DNA” is about -0.1, and the highest 2% start at about 0.36. The list shows a part of the results.
# B1: Caulobacter ParB omega fusion; a variant is named by its letters at X, in order, B8GW30 (parent)
# chain: MESVVVGEPGMSEGRRGLGRGLSALLGEVDAAPAQAPGEQLGGSREAPIEILQRNPDQPRRTFREEDLEDLSNSIREKGVLQPILVRPSPDTAGEYQIVAGERAWRAAQRAGLKTVPIMVRELDDLAVLEIGIIENVQRADLNVLEEALSYKVLMEKFERTQENIAQTIGKSXSHVANXMRLLXLPDEVQSYLVSGELTAXHARAIAAAADPVALAKQIIEGGLSVRETEALARKAPNLSAGKSKGGRPPRVKDTDTQALESDLSSVLGLDVSIDHRGSTGTLTITYATLEQLDDLCNRLTRGI
# Variants of: B1
# Experiment: one-hybrid fitness for binding NBS DNA (the Noc-binding site; scaled: cognate 1, non-cognate 0); higher = stronger binding
# Conditions: with NBS DNA site
# Procedure, shortened: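 Bacterial one-hybrid selection in E. coli USO rpoZ- hisB- pyrF- with a HIS3 reporter carrying the site 19 bp from the promoter, screening Caulobacter ParB libraries with four specificity codons randomised (NNS). Cells grew 48 hours at 37°C on M9-minus-histidine plus 0.1 mM IPTG and 5 mM 3-AT. Plasmids before and after selection were Illumina-sequenced, three replicate libraries pooled, and variants under 10 reads dropped. Fitness is the log change in variant-to-wild-type read ratio, rescaled to cognate 1, non-cognate 0.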
row,Variant,one-hybrid fitness for binding NBS DNA
1,DGLR,≤ 0.2
2,CLVI,≤ 0.2
3,EEAY,≤ 0.2
4,KTAS,≤ 0.2
5,WWTL,≤ 0.2
6,YRMG,≤ 0.2
7,ARHN,≤ 0.2
8,NMLW,≤ 0.2
9,QCCP,≤ 0.2
10,MYYT,≤ 0.2
11,AQML,≤ 0.2
12,FTPC,≤ 0.2
13,RMVR,0.314
14,KARH,≤ 0.2
15,HCCG,≤ 0.2
16,TKAG,≤ 0.2
17,LRFA,≤ 0.2
18,LVVQ,≤ 0.2
19,CVCV,≤ 0.2
20,RAPC,≤ 0.2
21,VFGM,≤ 0.2
22,QELI,≤ 0.2
23,GRLI,≤ 0.2
24,PQHE,≤ 0.2

row,Variant,one-hybrid fitness for binding NBS DNA
1,QMCT,0.339
2,VNKR,≤ 0.2
3,TVMI,≤ 0.2
4,KMSE,≤ 0.2
5,WLDW,≤ 0.2
6,PHNR,≤ 0.2
7,LLLW,≤ 0.2
8,QDHA,≤ 0.2
9,VIGR,≤ 0.2
10,ELCG,≤ 0.2
11,FPTR,≤ 0.2
12,LWEA,≤ 0.2
13,FWTG,≤ 0.2
14,FTPA,≤ 0.2
15,MADS,≤ 0.2
16,SGAS,≤ 0.2
17,WYRR,0.23
18,VHPC,≤ 0.2
19,TDKC,≤ 0.2
20,KSRK,≤ 0.2
21,HAPR,≤ 0.2
22,GSIS,≤ 0.2
23,LILL,≤ 0.2
24,HRDI,≤ 0.2

row,Variant,one-hybrid fitness for binding NBS DNA
1,TYTY,≤ 0.2
2,KTGM,≤ 0.2
3,RPQR,≤ 0.2
4,TRWY,≤ 0.2
5,CFTC,≤ 0.2
6,FDKN,≤ 0.2
7,CSNG,≤ 0.2
8,CLTG,≤ 0.2
9,SKSV,≤ 0.2
10,ADSV,≤ 0.2
11,RPNC,≤ 0.2
12,VMDE,≤ 0.2
13,QMHY,0.203
14,RFNP,≤ 0.2
15,SSRS,≤ 0.2
16,TSTF,≤ 0.2
17,RFQN,≤ 0.2
18,TNYY,≤ 0.2
19,RNWA,≤ 0.2
20,NQQK,≤ 0.2
21,SNNS,≤ 0.2
22,NHPI,≤ 0.2
23,SWSN,≤ 0.2
24,RNTL,≤ 0.2

row,Variant,one-hybrid fitness for binding NBS DNA
1,RHPD,≤ 0.2
2,HRMT,≤ 0.2
3,NRYV,≤ 0.2
4,VRLN,≤ 0.2
5,VDNP,≤ 0.2
6,GRTC,≤ 0.2
7,RHYN,≤ 0.2
8,EYIR,≤ 0.2
9,PLKF,≤ 0.2
10,FRTG,≤ 0.2
11,ASYF,≤ 0.2
12,FLSV,≤ 0.2
13,PMYQ,≤ 0.2
14,FCKC,≤ 0.2
15,YQSS,≤ 0.2
16,LIMV,≤ 0.2
17,QWQR,0.267
18,ERAC,≤ 0.2
19,KIHT,≤ 0.2
20,ITYT,≤ 0.2
21,ERRK,≤ 0.2
22,QVQQ,≤ 0.2
23,IKGR,≤ 0.2
24,YDNL,≤ 0.2

row,Variant,one-hybrid fitness for binding NBS DNA
1,QLMR,0.437
2,KVTG,≤ 0.2
3,LFCG,≤ 0.2
4,LPGT,≤ 0.2
5,TRPL,≤ 0.2
6,VRTA,≤ 0.2
7,KSIM,≤ 0.2
8,HFRP,≤ 0.2
9,STHF,≤ 0.2
10,SDVR,≤ 0.2
11,DRAA,≤ 0.2
12,NSDL,≤ 0.2
13,ISSS,≤ 0.2
14,KYVN,≤ 0.2
15,WYPC,≤ 0.2
16,SYKV,≤ 0.2
17,IVRC,≤ 0.2
18,LGTT,≤ 0.2
19,NVPA,≤ 0.2
20,LAPS,≤ 0.2
21,YSYN,≤ 0.2
22,SQPF,≤ 0.2
23,GHSL,≤ 0.2
24,RSPM,≤ 0.2

row,Variant,one-hybrid fitness for binding NBS DNA
1,WMMG,≤ 0.2
2,LFWV,≤ 0.2
3,HCPR,≤ 0.2
4,LGMT,≤ 0.2
5,HCET,≤ 0.2
6,TWYY,≤ 0.2
7,LAET,≤ 0.2
8,CDVG,≤ 0.2
9,AYMT,≤ 0.2
10,RHGG,≤ 0.2
11,RCMH,≤ 0.2
12,QECR,≤ 0.2
13,RPHK,≤ 0.2
14,QYMP,≤ 0.2
15,MVYT,≤ 0.2
16,HYSE,≤ 0.2
17,GMHN,≤ 0.2
18,SSCI,≤ 0.2
19,NVWC,≤ 0.2
20,EDPG,≤ 0.2
21,CSTM,≤ 0.2
22,HWHR,≤ 0.2
23,PAGI,≤ 0.2
24,ETTQ,≤ 0.2

row,Variant,one-hybrid fitness for binding NBS DNA
1,VCQV,≤ 0.2
2,ISSR,≤ 0.2
3,PQCS,≤ 0.2
4,VKVC,≤ 0.2
5,NIPT,≤ 0.2
6,IHKR,0.243
7,RCWC,≤ 0.2
8,QTRF,0.446
9,IFAI,≤ 0.2
10,IYIS,≤ 0.2
11,WWTR,≤ 0.2
12,LLQA,≤ 0.2
13,PQSD,≤ 0.2
14,GSNK,≤ 0.2
15,SAQR,≤ 0.2
16,SMFT,≤ 0.2
17,FFHT,≤ 0.2
18,FKLG,≤ 0.2
19,FDGW,≤ 0.2
20,CVGN,≤ 0.2
21,PNCQ,≤ 0.2
22,KRYM,≤ 0.2
23,CGYV,≤ 0.2
24,LRMR,≤ 0.2

row,Variant,one-hybrid fitness for binding NBS DNA
1,VDDV,≤ 0.2
2,STMT,≤ 0.2
3,AFQS,≤ 0.2
4,YSII,≤ 0.2
5,GFNV,≤ 0.2
6,PQWD,≤ 0.2
7,VDGG,≤ 0.2
8,TIMC,≤ 0.2
9,AYRP,≤ 0.2
10,EYTC,≤ 0.2
11,PVSN,≤ 0.2
12,TRSN,≤ 0.2
13,RFCF,≤ 0.2
14,RLVC,≤ 0.2
15,ARNF,≤ 0.2
16,LMFF,≤ 0.2
17,TESH,≤ 0.2
18,AHCG,≤ 0.2
19,CNNN,≤ 0.2
20,KSEL,≤ 0.2
21,NKYT,≤ 0.2
22,FHTS,≤ 0.2
23,PYYA,≤ 0.2
24,WGCF,≤ 0.2

row,Variant,one-hybrid fitness for binding NBS DNA
1,DCAS,≤ 0.2
2,FDPT,≤ 0.2
3,VCWS,≤ 0.2
4,RLWR,0.248
5,RCKK,0.248
6,CLTL,≤ 0.2
7,HFSW,≤ 0.2
8,TTCF,≤ 0.2
9,QMFF,≤ 0.2
10,SKQY,≤ 0.2
11,PMWG,≤ 0.2
12,RVTW,≤ 0.2
13,CRPH,≤ 0.2
14,SPVR,≤ 0.2
15,SAWA,≤ 0.2
16,VTDR,≤ 0.2
17,SHMS,≤ 0.2
18,ACNT,≤ 0.2
19,QIQI,≤ 0.2
20,NACS,≤ 0.2
21,ANVA,≤ 0.2
22,RGAG,≤ 0.2
23,TLGR,≤ 0.2
24,PHNK,≤ 0.2

row,Variant,one-hybrid fitness for binding NBS DNA
1,RPSF,≤ 0.2
2,VMYT,≤ 0.2
3,RGKN,≤ 0.2
4,SSEK,≤ 0.2
5,SYKT,≤ 0.2
6,LLYG,≤ 0.2
7,WNKA,≤ 0.2
8,DMKT,≤ 0.2
9,ACCL,≤ 0.2
10,LQYC,≤ 0.2
11,QAFN,≤ 0.2
12,ASGC,≤ 0.2
13,FTFG,≤ 0.2
14,VNDE,≤ 0.2
15,LYMS,≤ 0.2
16,SWNG,≤ 0.2
17,AELL,≤ 0.2
18,SAPG,≤ 0.2
19,MREW,≤ 0.2
20,IDNC,≤ 0.2
21,HDFR,≤ 0.2
22,PHML,≤ 0.2
23,LVDW,≤ 0.2
24,NHSK,≤ 0.2

row,Variant,one-hybrid fitness for binding NBS DNA
1,LTVD,≤ 0.2
2,QSHR,0.578
3,AHEF,≤ 0.2
4,SLSH,≤ 0.2
5,HCNS,≤ 0.2
6,QYDC,≤ 0.2
7,LVTF,≤ 0.2
8,GVPN,≤ 0.2
9,KVGC,≤ 0.2
10,QSFS,0.256
11,QQNI,0.203
12,PFAS,≤ 0.2
13,THEL,≤ 0.2
14,HNSR,≤ 0.2
15,RDMC,≤ 0.2
16,RCSN,≤ 0.2
17,QICG,≤ 0.2
18,PLLQ,≤ 0.2
19,APER,≤ 0.2
20,DFPT,≤ 0.2
21,YCHY,≤ 0.2
22,KSLK,≤ 0.2
23,RCHD,≤ 0.2
24,VCCS,≤ 0.2

row,Variant,one-hybrid fitness for binding NBS DNA
1,IGVS,≤ 0.2
2,LFGS,≤ 0.2
3,RERG,≤ 0.2
4,LETY,≤ 0.2
5,FIMT,≤ 0.2
6,PVMC,≤ 0.2
7,LWQL,≤ 0.2
8,SMHF,≤ 0.2
9,HAQV,≤ 0.2
10,SVGI,≤ 0.2
11,YRKC,≤ 0.2
12,ILSP,≤ 0.2
13,GEAK,≤ 0.2
14,ASRK,≤ 0.2
15,PMGP,≤ 0.2
16,DPTT,≤ 0.2
17,KHRN,≤ 0.2
18,HRLL,≤ 0.2
19,EHAR,≤ 0.2
20,GHWS,≤ 0.2
21,VANI,≤ 0.2
22,HDGM,≤ 0.2
23,TCTK,≤ 0.2
24,IVEG,≤ 0.2

row,Variant,one-hybrid fitness for binding NBS DNA
1,MSHL,≤ 0.2
2,PRVK,≤ 0.2
3,SLWR,≤ 0.2
4,HMCT,≤ 0.2
5,SLRN,≤ 0.2
6,LKFV,≤ 0.2
7,CYNS,≤ 0.2
8,HDCW,≤ 0.2
9,ALGW,≤ 0.2
10,LCMK,≤ 0.2
11,RCYM,≤ 0.2
12,ALNA,≤ 0.2
13,SVEC,≤ 0.2
14,VTLG,≤ 0.2
15,WRTA,≤ 0.2
16,MTST,≤ 0.2
17,WNTE,≤ 0.2
18,GEGP,≤ 0.2
